Counter-ions that a name gives are not always drawn. The list shows a part of the results. Most values come without repeats; read them as rough.
Assays:
Experiment in all cases: proliferation Z-score within cell line (SRB, relative to all inhibitors screened on that line); triple-negative breast cancer lines and a kinase inhibitor library; SRB is the sulforhodamine B protein stain; higher = less growth inhibition (more resistant)
Conditions in all cases: concentration: 1 µM; 4 days
Bt20 = test system: Bt20
Bt549 = test system: Bt549
HCC1143 = test system: HCC1143
HCC1806 = test system: HCC1806
HCC1937 = test system: HCC1937
HCC38 = test system: HCC38
HCC70 = test system: HCC70
Hs578T = test system: Hs578T
MDA-MB-231 = test system: MDA-MB-231
MDA-MB-435s = test system: MDA-MB-435s
MDA-MB-436 = test system: MDA-MB-436
MDA-MB-453 = test system: MDA-MB-453
MDA-MB-468 = test system: MDA-MB-468
SKBR7 = test system: SKBR7
SUM1315MO2 = test system: SUM1315MO2
SUM149PT = test system: SUM149PT
SUM159PT = test system: SUM159PT
SUM185PE = test system: SUM185PE
SUM229PE = test system: SUM229PE
SUM52PE = test system: SUM52PE
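Also: Single-dose primary screen of a 378-member kinase inhibitor library in 96-well plates, with growth read as absorbance of protein-bound SRB dye after TCA fixation.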

Row | SMILES | proliferation Z-score within cell line (Bt20) | proliferation Z-score within cell line (Bt549) | proliferation Z-score within cell line (HCC1143) | proliferation Z-score within cell line (HCC1806) | proliferation Z-score within cell line (HCC1937) | proliferation Z-score within cell line (HCC38) | proliferation Z-score within cell line (HCC70) | proliferation Z-score within cell line (Hs578T) | proliferation Z-score within cell line (MDA-MB-231) | proliferation Z-score within cell line (MDA-MB-435s) | proliferation Z-score within cell line (MDA-MB-436) | proliferation Z-score within cell line (MDA-MB-453) | proliferation Z-score within cell line (MDA-MB-468) | proliferation Z-score within cell line (SKBR7) | proliferation Z-score within cell line (SUM1315MO2) | proliferation Z-score within cell line (SUM149PT) | proliferation Z-score within cell line (SUM159PT) | proliferation Z-score within cell line (SUM185PE) | proliferation Z-score within cell line (SUM229PE) | proliferation Z-score within cell line (SUM52PE)
1 | COc1cc(C(=O)NC2CCN(C)CC2)ccc1Nc1ncc2c(n1)N(C1CCCC1)CC(F)(F)C(=O)N2C | -2.94 | -2.68 | -2.7 | -1.44 | -2.44 | -3.06 | -0.673 | -1.91 | -2.6 | -2.27 | -1.85 | -1.64 | -2.42 | -2.78 | -2.22 | -2.82 | -3.31 | -1.34 | -1.57 | -1.58
2 | C[C@@H](Oc1cc(-c2cnn(C3CCNCC3)c2)cnc1N)c1c(Cl)ccc(F)c1Cl | 0.719 | 0.818 | 1.3 | 0.733 | 1.06 | 0.451 | 0.907 | 0.0707 | -0.944 | -0.655 | 0.927 | 0.65 | -0.264 | -0.172 | 1.16 | 0.971 | 0.715 | 0.993 | 0.398 | 0.402
3 | COc1c(C)c(C(=O)c2ccc(N)c(C(=O)O)c2)n2ccccc12 | 0.967 | 0.745 | 0.918 | 0.735 | 0.855 | 0.544 | 0.642 | 0.611 | 0.765 | 0.693 | 0.825 | 0.989 | 1.13 | 0.648 | 1.15 | 0.768 | 0.558 | 0.946 | 0.871 | 1.24
4 | COc1ccc(C(=O)Nc2sc3c(c2C(N)=O)CCCC3)cc1OC | 0.375 | -0.125 | 0.304 | -0.0806 | 0.264 | 0.251 | 0.194 | 0.00845 | 1 | 0.463 | 0.55 | -1.09 | 0.785 | -0.745 | 0.801 | 0.418 | 0.161 | 0.156 | 0.33 | 0.854
5 | O=S(=O)(c1cccc2cnccc12)N1CCCNCC1 [Fasudil (HA-1077) HCl] | 0.812 | 0.716 | 0.422 | 0.448 | -0.00819 | 0.581 | 0.449 | 0.677 | 0.909 | 0.895 | 0.197 | 0.548 | 1.04 | 0.0956 | 0.83 | 0.612 | 0.365 | 0.582 | 0.78 | 1.32
6 | CNc1nc(Nc2cn(C(C)(C)C#N)nc2C)ncc1C(F)(F)F | -0.434 | 0.419 | 0.131 | 0.779 | 0.246 | 0.286 | 0.258 | -0.135 | 0.515 | 0.334 | -0.155 | 0.392 | 0.445 | -0.588 | -0.0921 | 0.246 | -0.0928 | -0.531 | -0.493 | -0.236

Reference: the supplement of paper PMC6746778
